From the RNAGym collection of RNA variant scans (doi:10.7554/elife.90254) come the findings set out here.

The chains are these.
B1: OR4K15 (parent)
chain: GUUAACGGUCAUAGGCCAUGGAAACUAGGAGCACCAUUUCGCUGCCAGUGAAGAAAUGAACAAAGAAAAUCUGGGCCAGGCAGGCAUCAAAAGAAAUAGUCUUGCGCUCAACCAGAAAGUCUGUAAUCAUUUUAAGGGUA

The source gives no read counts; variants with many changes may rest on few reads.

The variants in the series derive from B1. Kind of series: self-cleavage, relative activity (ratio to wild type); higher = more cleavage; in vitro, sequencing; the parent is a self-cleaving ribozyme.
On to GUUAACGGUCAUAGGCCAUGGAAACUAGGAGCACCAUUUCGCUGCCGGUGAAGAAAUGAACAAAGAAAAUCUGGGCCAGGCAGGCAUCAAAAGAAUUAGUCUUGCGCUCAACCAGAAAGUCUGUAAUCAUUUUAAGGGAA [A47G A96U U139A], for which the self-cleavage stood at 1.07. As for GUUAACGGUCAUAGGCCAUGGAAACUAGGAGCACCAUUUCGCUGCCGGCGAAGAAAUGAACAAAGAAAAUCUGGGCCAGGCAGGCAUCAAAAGAAAUAGUCUUGCGCUCAACCAGAAAGUCUGUAAUCCUUUUAAGGGUA [A47G U49C A129C], the figure is 0.42; as for GUUAACGGUCAUAGGCCAUGGAAACUAGGAGCACCAUUUCGCUGCCUGUGAAGAGAUGAACAAAGAAAAUCUGGGCCAGGCAGGCAUCAAAAGAAAUAGUCUUGCGCACAACCAGAAAGUCUGUAAUCAUUUUAAGGGUA [A47U A55G U108A], 0.02. As for GUUAACGGUCAUAGGCCAUGGAAACUAGGAGCACCAUUUCGCUGCCGGUGAAGAAAUGAACAAAGAAAAUCUGGGCCAGGCAGGCAUCAAAAGAAAUAGUCUUGCGCUCAACCAGAAAAUCUGCAAUCAUUUUAAGGGUA [A47G G119A U124C], the figure is 1.09; as for GUUAACGGUCAUAGGCCAUGGAAACUAGGAGCACCAUUUCGCUGCCUGUGAAGGAAUGAACAGAGAAAAUCUGGGCCAGGCAGGCAUCAAAAGAAAUAGUCUUGCGCUCGACCAGAAAGUCUGUAACCAUUUUAAGGGUA [A47U A54G A63G A110G U127C], 0.05. For the variant GUUAACGGUCAUAGGCCAUGGAAACUAGGAGCACCAUUUCGCUGCCUGUGAAGAAAUGGACAAAGAAAAUCUGGGCCAGGCAGGCGUCAAAAGAAAUAGUCUUGCGCUCAACCAGAGAGCCUGUAAUCAUUUUAAGGGAA [A47U A59G A86G A117G U120C U139A], the self-cleavage was 0.27. As for GUUAACGGUCAUAGGCCAUGGAAACUAGGAGCACCAUUUCGCUGCCGGUGAAGAAAUGAACAAAGAAAAUCUGGGCCAGGCAGGCAUCAAAAGUAAUAGUCUCGCGCUCAACCAGAAAGUCUGUAAUCAUUUUAAGGGUA [A47G A94U U103C], the figure is 0.87; as for GUUAACGGUCAUAGGCCAUGGAAACUAGGAGCACCAUUUCGCUGCCGGUGAAGAAAUGAACAAAGAAAAUCUGGGCCAGGCAGGCAUCUAAAGAAAUAGUCUUGCGCUCAACCAGAAAGUCUGUAAUCAUUUUAAGGGUG [A47G A89U A140G], 1.31.

For GUUAACGGUCAUAGGCCAUGGAAACUAGGAGCACCAUUUCGCUGCCGGUGAAGAAAUGAACAAAGAAAAACUGGGCCAGGCAGGCAUCAAAAGUAAUAGUCUUGCGCUCAACCAGAAAGUCUGUAAUCAUUUUAAGGGUA [A47G U70A A94U], the self-cleavage came to 1.11. Take GUUAACGGUCAUAGGCCAUGGAAACUAGGAGCACCAUUUCGCUGCCGGCGAAGAAGUGAAUAAAGAAAAUCUGGGCCAGGCAGGCAUCAAAAGAAAUAGUCUUGCGCUCAACCAGAAAGUCUGUAAUCAUUUUAAGGGUA [A47G U49C A56G C61U]: the self-cleavage came to 1.24. In the case of GUUAACGGUCAUAGGCCAUGGAAACUAGGAGCACCAUUUCGCUGCCGGCGAAGAAAUGAACAAAGAAAGUCUGGGCCAGGCAGGCAUCAAAAGAAAUAGUCUUGCGCUCAACCAGAAAGUCUGUAAUCAUUUUAAGGGUA [A47G U49C A69G], the self-cleavage was 0.67. In the case of GUUAACGGUCAUAGGCCAUGGAAACUAGGAGCACCAUUUCGCUGCCUGUGAAGAAGUGAACAUAGAAAAUCUGGGCCAGGCAGGCAUCAAAAGAAAUAGUCUUGCGCUCAACCAGGAAGUCUGUAAUCAUUUUAAGGGUA [A47U A56G A63U A116G], the self-cleavage amounted to 0.35.

As to GUUAACGGUCAUAGGCCAUGGAAACUAGGAGCACCAUUUCGCUGCCGGUGAAGAAAUGAACAAAGAAAAUCUGGGCCAGGCAGGCAUCAAAAGAAAUAGUCUUGCGCUCUGCCGGAAAGUCUGUAAUCAUUUUAAGGGUA [A47G A110U A111G A114G], the self-cleavage is 0.01.

On to GUUAACGGUCAUAGGCCAUGGAAACUAGGAGCACCAUUUCGCUGCCGGUGAAGAAAUGAACAAAGAAAAUCUGGGCCAGGCAGGCAUCAAAAGAAAUAGUCCUGCGCUCAACCAGAAAGUCCGUAAUCAUUUUAAGGGUA [A47G U102C U122C], for which the self-cleavage came to 1.73. The same measure for GUUAACGGUCAUAGGCCAUGGAAACUAGGAGCACCAUUUCGCUGCCGGUGAAGAAAUGAACAAAGAAAAUCUGGGCCAGGCAGGCAUCAAGAGAAAUAGUCCUGCGCUCAACCAGAAAGUCUGAAAUCAUUUUAAGGGUA [A47G A91G U102C U124A]: 0.51; for GUUAACGGUCAUAGGCCAUGGAAACUAGGAGCACCAUUUCGCUGCCGGUGAAGAAAUGAACAAAGAAAAUCUGGGCCAGGCAGGCAUCAAAAGAAAUAGUCUUGCGCUCAACCAGAAGGUCUGUAAUCAUCUUAAGGGUA [A47G A118G U131C]: 0.2; for GUUAACGGUCAUAGGCCAUGGAAACUAGGAGCACCAUUUCGCUGCCGGUGAAGAAAUGAACAAAGAAAAUCUGGGCCAGGCAGGCAUCAAAAGAAAUAGUCUCGCGCUCAACCAGAAAGCCUGUAAUCAUUUUAAGGGUA [A47G U103C U120C]: 0.12.

For the variant GUUAACGGUCAUAGGCCAUGGAAACUAGGAGCACCAUUUCGCUGCCUGUGAAGAAAUGGACAAAGAAAGUCUGGGCCAGGCAGGCAUCAAAAGAAAUAGUCUUGCGCUCAACCAGAAAGUCUGUAAUCAUUUUAAGGGUA [A47U A59G A69G], the self-cleavage was determined as 0.47.

In the case of GUUAACGGUCAUAGGCCAUGGAAACUAGGAGCACCAUUUCGCUGCCGGCGAAGAAAUGAACAAAGAAAAUCUGGGCCAGGCGGGCAUCAAAAGAAAUAGUCUCGCGCUCAACCAGAAAGUCCGUAAUCAUUUUAAGGGUA [A47G U49C A82G U103C U122C], the self-cleavage was 1.57. In the case of GUUAACGGUCAUAGGCCAUGGAAACUAGGAGCACCAUUUCGCUGCCUGUGAAGAAAUGAACAAAGAGAAUCUGGGCCAGGCAGGCAUCAAAGGAAAUAGUCUUGCGCUCAACCAGAAAGUCUGUAGUCAUUUUAAGGGUA [A47U A67G A92G A126G], the self-cleavage worked out at 0.21. Turning to GUUAACGGUCAUAGGCCAUGGAAACUAGGAGCACCAUUUCGCUGCCUGUGAGGAAAUGAACAAAGAAAAUCUGGGUCAGGCAGGCAACAAAAGAAAUAGUCUUGCGCUCAACCAGAAAGUCUGUAAUCAUCUUAGGGGUA [A47U A52G C76U U87A U131C A135G], the self-cleavage is 0.04.
